± gives the standard deviation of the averaged measurements. Some of the results follow.
What follows are sequences tested on PfAP2-I AP2 domain 3 (GST-tagged) (assay: gcPBM binding intensity (ln(normalized median fluorescence intensity)); higher = stronger DNA binding).
Method in brief: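 GST-fused DNA-binding domains of P. falciparum, expressed in E. coli, were applied at about 25 μg on average for 1 h to an Agilent 4 × 180k array of primer-extended double-stranded 36-bp intergenic genomic probes and negative controls. Binding intensity is the highest Masliner-normalised natural-log median intensity across replicate spots of either probe orientation, measured with Alexa488 anti-GST antibody and a 488 nm scan.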

Row | Sequence | gcPBM binding intensity (ln)
1 | TACTTATTTGATTGGGTGCATATATATAGTATGTAT [GTGCAC_site9845] | 11 ± 0.73
2 | TATTTCAAATGTTATGTGCACATATTAATCCTACTT [GTGCAC_site9738] | 9.54 ± 0.25
3 | AATATCTGAAAATAAAGTACAAACATATTATAAATA [XGTACX_site5738] | 7.7 ± 0.47
4 | AAATAAAATAAAATAAAATAAAATAAAATAAAATAA [XGTACX_negctrl_site142] | 8.01 ± 0.98
5 | TTATTTATGAGGGTGACACACAAAAGAGTGTTAAGA [CACACA_site277] | 7.8 ± 0.67
6 | AAAAAAAAACACGCATGTACATAAAAATAATCATAC [XGTACX_site1086] | 7.96 ± 0.57
7 | CTTGTGCTTTATAGGGTGCACATTTTGTTTTGGTAA [GTGCAC_site9899] | 11 ± 0.46
8 | TGAACACATACATACACACACACAAAAAAAAAAAAA [CACACA_site392] | 7.97 ± 0.59
9 | TTATTAATTATATATAGTACACATTTCACAGATGGG [XGTACX_site2349] | 7.99 ± 0.33
10 | TTTTTTTTTTTTTTTGGTACACATTTTGGTTAATGG [XGTACX_site5109] | 8.12 ± 0.64
11 | AAAATTATGCAGTAGGTGCAATACCCTCGGCTTTTT [GTGCAC_site9556] | 11.1 ± 0.64
12 | ATAAAAAGGTTTAAAAAAAAAAAAAAAAAAAAAAAA [CACACA_negctrl_site412] | 8.23 ± 0.8
13 | GATGAAATATCATTACGTACACAATAGTTTGTATTT [XGTACX_site5143] | 7.81 ± 0.37
14 | AATAATAATAGAAACACACACACATTTTTAAGAATA [CACACA_site6692] | 7.78 ± 0.52
15 | TGAAAAAAAAAATGCACACGCATACAGATAATATGT [CACACA_site4526] | 8.62 ± 0.51
16 | ATTATTGCAATTTAATGTACATAATACAAATTTGCC [XGTACX_site2729] | 8.38 ± 0.42
17 | AATGAATAAATAAACACACACACATATATATATATG [CACACA_site18] | 7.92 ± 0.47
18 | TATACGTATACCTATACACACATATATATATATATA [CACACA_site1273] | 9.3 ± 0.49
19 | TATATTCAAAAAAATTCATTTCTGATTTTTTTTTTT [CACACA_negctrl_site1085] | 7.11 ± 0.46

Row | Sequence | gcPBM binding intensity (ln)
20 | TAAAATAAAAATATAGTGCACAGATTTTGATATTTT [GTGCAC_site9696] | 11.2 ± 0.23
21 | CTTTGTGGTATAGATACACACTATATTAAGATGAAC [CACACA_site5215] | 7.67 ± 0.6
22 | CACATTATGTATCATACACACAAATAGATATATAAC [CACACA_site6434] | 7.82 ± 0.59
23 | TGAAGGTTTCAAAAACGTACAAAAAAAAATGTTAGT [XGTACX_site8803] | 7.93 ± 0.83
24 | TTTAGAAATAAATACACACATACATTTTTGTATACA [CACACA_site718] | 7.48 ± 0.33
25 | TTTTTTTTTTATGGTACACACACGCGTATGGTTGCA [CACACA_site1876] | 8.18 ± 0.65
26 | ATAATAAATGATAGCACACATATGTACATAAATACA [CACACA_site4634] | 8.22 ± 0.36
27 | TATCTTAACAATTAGTGTACAGATAACCAATTAAAA [XGTACX_site3184] | 7.72 ± 0.45
28 | AACATATAAAAATGTGCACACACACCCATATATATA [CACACA_site1525] | 9.665 ± 0.007
29 | TTAATCCTTTTTAAAAGTACACATATATATATATAT [XGTACX_site962] | 9.38 ± 0.3
30 | TATATATATATATAATGTACAGAAAAAAAAAAAAAA [XGTACX_site6141] | 9.4 ± 0.15
31 | ATATTATATATTTGATGTACATTGAATGAGAGAGAA [XGTACX_site3324] | 8.43 ± 0.28
32 | AAATCATGTTGAAGGGGTACAAAATATGTAATGTTG [XGTACX_site6222] | 7.95 ± 0.53
33 | AAATAGAGAAATACAAGTACATACTAAACCAATCTA [XGTACX_site2780] | 7.62 ± 0.54
34 | TATAATGTTGATAATAGTACGTATGAGTTCAAAAAA [XGTACX_site988] | 7.93 ± 0.61
35 | CAAATCAAAATTAATTAACACACAATTTTAATATTC [CACACA_site8641] | 7.54 ± 0.49
36 | TTCTTTGTAGTATATTAACACACAACTGTTTATAAT [CACACA_site9305] | 8.02 ± 0.59
37 | AAAGGATATAATACCATACACACATTTATAAAATAA [CACACA_site1931] | 7.77 ± 0.54
38 | AAAAGAAAATATATGTGTACTAAAATATATATATAT [XGTACX_site3817] | 9.455 ± 0.021

Row | Sequence | gcPBM binding intensity (ln)
39 | ACTTTTATTCGCTTACGTACATATATTATATATTAT [XGTACX_site4459] | 8.75 ± 0.55
40 | GTTTATTAAACATTAGTGCAATTTTAATCCATTCTA | 9.36 ± 0.085
41 | TACCTACACTTTTGGAGTACAATTAAAAAAAAAAAA [XGTACX_site1403] | 8.04 ± 0.7
42 | TTTAAAGTAATAAAGTGTACAAAAATAAATTCAGCT [XGTACX_site8651] | 8.29 ± 0.59
43 | ATATATATATATAACTGTACTTATATATACATTTTA [XGTACX_site8605] | 9.22 ± 0.11
44 | ATATATATATATATATGTACATATATATATAATTTT [XGTACX_site4146] | 9.43 ± 0.64
45 | TAAATAAATAAAAAAACACACATATATATATATATA [CACACA_site4029] | 9.63 ± 0.59
46 | ATCAAGCACCAACACACACACACACCCCCACCCACA [CACACA_site370] | 9.23 ± 0.15
47 | TTTTATCACATTATTGCACACACATAAAGAAAAAAA [CACACA_site8922] | 10 ± 0.48
48 | AATAATATAGATTGTACACACAAAATGGGAAAAAAA [CACACA_site1886] | 8.19 ± 0.67
49 | ATAAATGGAAACAAAAGTACTAAAAAAAAAAAATAA [XGTACX_site1510] | 7.67 ± 0.71
50 | ATTATGTATATAAATTAACACACATATGTGGTTAAT [CACACA_site9028] | 7.76 ± 0.49
51 | ACGGGTCAATATATGCGTACTTATTTAAATAATTAA [XGTACX_site1518] | 7.92 ± 0.3
52 | TATATATGTATGTATTGTACAATTAAAAATATGTAT [XGTACX_site3990] | 7.88 ± 0.53
53 | AAAAAAAAAAAAGATACACACAAAAATGAATATATA [CACACA_site2099] | 7.46 ± 0.34
54 | ATAAAATATTAATTTTAAATTAATCAATATATATAA [GTGCAC_negctrl_site474] | 7.41 ± 0.42
55 | ATTAATATTCTATATGCATGTGAACCATGGTATATA [TGCATGCA_site430] | 7.7 ± 0.69
56 | ATATATATATATATATGTACTTATTTATCGTATTAT [XGTACX_site3520] | 9.32 ± 0.27
57 | TCATATCTTTTGAGCACACATATATATATATAAAGG [CACACA_site3338] | 8.44 ± 0.21
